This passage reports cell count results from the supplement of paper PMC4604168 (melanoma cell lines).

SMILES strings stand for the structures. Some of the results follow. Repeats are few or missing, and single values can be far off.
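Also: cells treated in 1,536-well plates, then fixed and DAPI-stained, with nuclei counted from automated high-throughput microscope images.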

This assay concerns RPMI7951. Nature of the assay: cell count relative to DMSO control; melanoma cells; higher = more viable cells. Conditions: library dose: standard library concentration; 72 h.
For the molecule `Cc1cc(Nc2cc(N3CCN(C)CC3)nc(Sc3ccc(NC(=O)C4CC4)cc3)n2)n[nH]1` [Tozasertib] + Cc1cn(-c2cc(NC(=O)c3ccc(C)c(Nc4nccc(-c5cccnc5)n4)c3)cc(C(F)(F)F)c2)cn1 [nilotinib] (first compound 0.03 µM, partner dose 1 µM), the cell count is 95.6%.
The figure for `Cc1cc(Nc2cc(N3CCN(C)CC3)nc(Sc3ccc(NC(=O)C4CC4)cc3)n2)n[nH]1` [Tozasertib] + O=C(O)C(=O)Nc1sc2c(c1C(=O)O)CCNC2 [TCS401] (first compound 0.03 µM, partner dose 8.33333 µM) is 121%; for `Cc1cc(Nc2cc(N3CCN(C)CC3)nc(Sc3ccc(NC(=O)C4CC4)cc3)n2)n[nH]1` [Tozasertib] + O=S(=O)(c1ccccc1)N(CC(F)(F)F)c1ccc(C(O)(C(F)(F)F)C(F)(F)F)cc1 [T0901317] (first compound 0.03 µM, partner dose 7 µM) it is 55.5%.
`CC[C@]1(O)C[C@H]2CN(CCc3c([nH]c4ccccc34)[C@@](C(=O)OC)(c3cc4c(cc3OC)N(C=O)[C@H]3[C@@](O)(C(=O)OC)[C@H](OC(C)=O)[C@]5(CC)C=CCN6CC[C@]43[C@@H]65)C2)C1` [vincristine] + O=C(/C=C/c1cccnc1)NCCCCC1CCN(C(=O)c2ccccc2)CC1 [FK866] (first compound 0.0005 µM, partner dose 0.05 µM) gave a cell count of 75.9%.
`Cc1cc(Nc2cc(N3CCN(C)CC3)nc(Sc3ccc(NC(=O)C4CC4)cc3)n2)n[nH]1` [Tozasertib] + OCCn1cc(-c2cnc3nnn(Cc4ccc5ncccc5c4)c3n2)cn1 [PF04217903] (first compound 0.03 µM, partner dose 5 µM) came in with a cell count of 45%.
The figure for `CC[C@]1(O)C[C@H]2CN(CCc3c([nH]c4ccccc34)[C@@](C(=O)OC)(c3cc4c(cc3OC)N(C=O)[C@H]3[C@@](O)(C(=O)OC)[C@H](OC(C)=O)[C@]5(CC)C=CCN6CC[C@]43[C@@H]65)C2)C1` [vincristine] + C[C@@H]1CCN(C(=O)CC#N)C[C@@H]1N(C)c1ncnc2[nH]ccc12 [CP690550] (first compound 0.0005 µM, partner dose 5 µM) is 52%; for `Cc1cc(Nc2cc(N3CCN(C)CC3)nc(Sc3ccc(NC(=O)C4CC4)cc3)n2)n[nH]1` [Tozasertib] + CCCCCCCCCCCCCCCCCCOP(=O)([O-])OC1CC[N+](C)(C)CC1 [Perifosine] (first compound 0.03 µM, partner dose 2 µM) it is 16%; for `CC[C@]1(O)C[C@H]2CN(CCc3c([nH]c4ccccc34)[C@@](C(=O)OC)(c3cc4c(cc3OC)N(C=O)[C@H]3[C@@](O)(C(=O)OC)[C@H](OC(C)=O)[C@]5(CC)C=CCN6CC[C@]43[C@@H]65)C2)C1` [vincristine] + CCCS(=O)(=O)Nc1ccc(F)c(C(=O)c2c[nH]c3ncc(Cl)cc23)c1F [PLX4720] (first compound 0.0005 µM, partner dose 0.4 µM) it is 80.2%.
On to `Cc1cc(Nc2cc(N3CCN(C)CC3)nc(Sc3ccc(NC(=O)C4CC4)cc3)n2)n[nH]1` [Tozasertib] + Cc1nc(Nc2ncc(C(=O)Nc3c(C)cccc3Cl)s2)cc(N2CCN(CCO)CC2)n1 [dasatanib] (first compound 0.03 µM, partner dose 0.02 µM), for which the cell count came out at 42.4%.
For the molecule `CC[C@]1(O)C[C@H]2CN(CCc3c([nH]c4ccccc34)[C@@](C(=O)OC)(c3cc4c(cc3OC)N(C=O)[C@H]3[C@@](O)(C(=O)OC)[C@H](OC(C)=O)[C@]5(CC)C=CCN6CC[C@]43[C@@H]65)C2)C1` [vincristine] + COc1ccc2c(c1)CCC1C2CCC2(C)C(NCCCCCCN3C(=O)C=CC3=O)CCC12 [U73122] (first compound 0.0005 µM, partner dose 2 µM), the cell count worked out at 36.5%.
With `Cc1cc(Nc2cc(N3CCN(C)CC3)nc(Sc3ccc(NC(=O)C4CC4)cc3)n2)n[nH]1` [Tozasertib] + N#Cc1c(O)c2c(-c3ccc(-c4ccccc4O)cc3)csc2[nH]c1=O [A769662] (first compound 0.03 µM, partner dose 10 µM) the figure was 92.4%; with `Cc1cc(Nc2cc(N3CCN(C)CC3)nc(Sc3ccc(NC(=O)C4CC4)cc3)n2)n[nH]1` [Tozasertib] + Cn1cncc1[C@@](N)(c1ccc(Cl)cc1)c1ccc2c(c1)c(-c1cccc(Cl)c1)cc(=O)n2C [tipifarnib] (first compound 0.03 µM, partner dose 0.05 µM), 73.5%; with `Cc1cc(Nc2cc(N3CCN(C)CC3)nc(Sc3ccc(NC(=O)C4CC4)cc3)n2)n[nH]1` [Tozasertib] + C#Cc1cccc(Nc2ncnc3cc(OCCOC)c(OCCOC)cc23)c1 [erlotinib] (first compound 0.03 µM, partner dose 4 µM), 53.8%.
Molecule `Cc1cc(Nc2cc(N3CCN(C)CC3)nc(Sc3ccc(NC(=O)C4CC4)cc3)n2)n[nH]1` [Tozasertib] + COc1cc(N2CCC(N3CCN(C)CC3)CC2)ccc1Nc1ncc(Cl)c(Nc2ccccc2S(=O)(=O)C(C)C)n1 [NVP-TAE684] (first compound 0.03 µM, partner dose 0.4 µM) registered a cell count of 62.1%.
With `CC[C@]1(O)C[C@H]2CN(CCc3c([nH]c4ccccc34)[C@@](C(=O)OC)(c3cc4c(cc3OC)N(C=O)[C@H]3[C@@](O)(C(=O)OC)[C@H](OC(C)=O)[C@]5(CC)C=CCN6CC[C@]43[C@@H]65)C2)C1` [vincristine] + CCc1ccc(CCOc2ccc(CC3SC(=O)NC3=O)cc2)nc1 [pioglitazone] (first compound 0.0005 µM, partner dose 10 µM) the figure was 17.3%.
For the molecule `Cc1cc(Nc2cc(N3CCN(C)CC3)nc(Sc3ccc(NC(=O)C4CC4)cc3)n2)n[nH]1` [Tozasertib] + COc1cc(Nc2ncc(F)c(Nc3ccc4c(n3)NC(=O)C(C)(C)O4)n2)cc(OC)c1OC [Tamatinib] (first compound 0.03 µM, partner dose 2 µM), the cell count was 35.7%.
The figure for `Cc1cc(Nc2cc(N3CCN(C)CC3)nc(Sc3ccc(NC(=O)C4CC4)cc3)n2)n[nH]1` [Tozasertib] + C[C@@H](Oc1cc(-c2cnn(C3CCNCC3)c2)cnc1N)c1c(Cl)ccc(F)c1Cl [Crizotinib] (first compound 0.03 µM, partner dose 1 µM) is 81.8%.
The figure for `CC[C@]1(O)C[C@H]2CN(CCc3c([nH]c4ccccc34)[C@@](C(=O)OC)(c3cc4c(cc3OC)N(C=O)[C@H]3[C@@](O)(C(=O)OC)[C@H](OC(C)=O)[C@]5(CC)C=CCN6CC[C@]43[C@@H]65)C2)C1` [vincristine] + CN(NC(=O)CC(=O)NN(C)C(=S)c1ccccc1)C(=S)c1ccccc1 [STA4783] (first compound 0.0005 µM, partner dose 0.03 µM) is 42.4%; for `CC[C@]1(O)C[C@H]2CN(CCc3c([nH]c4ccccc34)[C@@](C(=O)OC)(c3cc4c(cc3OC)N(C=O)[C@H]3[C@@](O)(C(=O)OC)[C@H](OC(C)=O)[C@]5(CC)C=CCN6CC[C@]43[C@@H]65)C2)C1` [vincristine] + NC1(c2ccc(-c3nc4ccn5c(=O)[nH]nc5c4cc3-c3ccccc3)cc2)CCC1 [MK2206] (first compound 0.0005 µM, partner dose 2 µM) it is 38.5%; for `CC[C@]1(O)C[C@H]2CN(CCc3c([nH]c4ccccc34)[C@@](C(=O)OC)(c3cc4c(cc3OC)N(C=O)[C@H]3[C@@](O)(C(=O)OC)[C@H](OC(C)=O)[C@]5(CC)C=CCN6CC[C@]43[C@@H]65)C2)C1` [vincristine] + O=C(O)c1ccc(-c2c[nH]c3ncc(-c4ccccc4)cc23)cc1C1CCCC1 [GSK650394] (first compound 0.0005 µM, partner dose 0.8 µM) it is 55.9%.
The figure for `CC[C@]1(O)C[C@H]2CN(CCc3c([nH]c4ccccc34)[C@@](C(=O)OC)(c3cc4c(cc3OC)N(C=O)[C@H]3[C@@](O)(C(=O)OC)[C@H](OC(C)=O)[C@]5(CC)C=CCN6CC[C@]43[C@@H]65)C2)C1` [vincristine] + COc1ccc(C2=N[C@@H](c3ccc(Cl)cc3)[C@@H](c3ccc(Cl)cc3)N2C(=O)N2CCNC(=O)C2)c(OC(C)C)c1 [Nutlin-3] (first compound 0.0005 µM, partner dose 0.5 µM) is 62.6%; for `N#CC[C@H](C1CCCC1)n1cc(-c2ncnc3[nH]ccc23)cn1` [ruxolitinib] + CC(=O)c1c(C)c2cnc(Nc3ccc(N4CCNCC4)cn3)nc2n(C2CCCC2)c1=O [palbociclib] (first compound 5 µM, partner dose 0.2 µM) it is 59.6%.
